Screen size: about 150,000 compounds; about 540 (0.36%) showed an effect of 50% or more. The list shows a part of the results.

For the assay, the system named is Plasmodium falciparum. Kind of assay: Primary screen in NF54 nanoGlo assay, in single point, at 2uM, 72h; a lower Z score goes with more inhibition. In kind it is functional, Erythrocyte. The settings on record: timepoint 72 hour.
For the compound `CC(C)(CC(=O)NCc1ccc[nH]1)CC(=O)c1ccccc1`, the “% Inhibition” value was -10% and the Z score worked out at 1.98.
As for `Cc1noc(C)c1C(C)(C)C(=O)N1CC2(CCC2)C[C@@H]1C`, the “% Inhibition” value stood at 1% and the Z score is -0.09.
Consider `CCc1nc(NS(=O)(=O)c2cc(C)c(C)s2)no1`, for which the “% Inhibition” value turned out to be 2% and the Z score was -0.26.
In the case of `Cc1ccc(NC(=O)CN2CCCc3nc(C4CC4)ncc3C2=O)cc1`, the “% Inhibition” value was -1% and the Z score stood at 0.19.
Take `Cc1[nH]ccc1C(=O)N[C@@H](C)C(C)(F)F`: the “% Inhibition” value was 11% and the Z score is -1.66.
As to `CC(=O)N[C@H]1C[C@@H](c2cc(NCCCc3cccnc3)nc(C)n2)C1`, the “% Inhibition” value was -15% and the Z score is given as 2.91.
Regarding `COc1ccccc1CNC(=O)CN1C[C@H](C)[C@@](O)(C2CCC2)C1`, the “% Inhibition” value was determined as 4% and the Z score was -0.7.
As for `CCc1ccc(-c2n[nH]c(=O)c3c2CCCC3)cc1S(=O)(=O)N1CCN(CC)CC1`, the “% Inhibition” value was 11% and the Z score is given as -1.27.
`CCn1c(=O)[nH]c2cc(-c3noc(-c4cc(OC)cc(OC)c4)n3)ccc21`: the “% Inhibition” value is on record as -10% and the Z score amounted to 0.99.
In the case of `CCS(=O)(=O)NCCS(=O)(=O)N1CCO[C@H](C(C)(C)C)C1`, the “% Inhibition” value is on record as -5% and the Z score was determined as 0.42.
In the case of `Cc1ccccc1NC(=O)Cn1c(=O)c(N2CCCC2)nc2ccccc21`, the “% Inhibition” value came out at 5% and the Z score is on record as -0.64.
Consider `CN1CCN(c2ccnc(-c3noc(CCc4cnn(C)c4)n3)c2)CC1`, for which the “% Inhibition” value is recorded as -6% and the Z score came to 0.81.
Turning to `Cc1ccc(NC(=O)N(Cc2ccccc2)Cc2c(-c3cccs3)n(C)c3ccccc23)c(C)c1`, the “% Inhibition” value is given as -5% and the Z score came to 0.67.
Turning to `Cc1nc(C(C)C)oc1C(=O)N1CCC[C@H](c2nc3c(s2)CCCC3)C1`, the “% Inhibition” value is on record as -3% and the Z score was found to be 0.5.
Consider `O=C(Nc1ccc(Oc2ccc(Cl)cc2)c(Cl)c1)c1cc2ccccc2cc1NS(=O)(=O)c1ccc(Cl)cc1`, for which the “% Inhibition” value is on record as -3% and the Z score was found to be 0.24.
Take `COCCCn1c(=O)c2ccccc2n(CC(=O)N(C)c2ccccc2)c1=O`: the “% Inhibition” value came to 37% and the Z score is recorded as -4.14.
Regarding `Cc1ccc(F)cc1NC(=O)Cn1nc2c(Oc3ccc(C(C)C)cc3)nc3ccccc3n2c1=O`, the “% Inhibition” value is listed as -3% and the Z score was 0.37.
`COc1ccc(OCc2nc(-c3ccc4c(c3)CC(=O)N4C)c(C)s2)cc1`: the “% Inhibition” value is -2% and the Z score was 0.36.
Turning to `Nc1ccc(C(=O)N2CCC3(CC2)c2nc[nH]c2CCN3C(=O)C2CCC2)cn1`, the “% Inhibition” value was -9% and the Z score is 1.74.
On the same counts, the results for `COc1nc2c(cc1CNC(=O)C1CCOCC1)C(=O)N(C1CCCC1)C2` are -20% and 2.59.
Regarding `O=C1C[C@]2(C(=O)N(CC(=O)N3CCCC3)c3ccccc32)c2cnn(-c3ccccc3)c2N1`, the “% Inhibition” value is on record as -6% and the Z score is 0.6.
With `CN(CCc1nc(-c2cccnc2)cs1)C(=O)OC(C)(C)C`, the “% Inhibition” value is -9% and the Z score worked out at 1.39.
For `Cc1cccc(-n2nnnc2C2(Nc3ccc4c(c3)OCCO4)CCCC2)c1`, the “% Inhibition” value was determined as 2% and the Z score is reported as -0.28.
For the compound `CN1CCCC(C)(C)[C@@H]1CNC(=O)c1cnnc(-c2ccccc2)c1`, the “% Inhibition” value turned out to be 6% and the Z score is listed as -0.99.
Regarding `COCCN1CC2(CCC1=O)CCN(C(=O)c1cnn(C(C)C)c1)CC2`, the “% Inhibition” value is recorded as -10% and the Z score turned out to be 1.36.
Consider `CCC1(CO)CCN(C(=O)NCc2ccc(N(C)C)cc2C)CC1`, for which the “% Inhibition” value is on record as -6% and the Z score was 0.79.
Consider `COc1ccc(OC)c(NC(=O)CN(CC(C)C)C(C)C)c1`, for which the “% Inhibition” value is given as -9% and the Z score is given as 1.24.
For `CCS(=O)(=O)NCC(=O)N1CCCc2sccc2C1`, in that order: -10% and 1.85.
With `O=C(COCC(=O)N1CCCCC1)NCc1ccc2c(c1)OCO2`, the “% Inhibition” value is listed as 9% and the Z score is given as -1.17.
Regarding `C[C@H]1CCCN1C(=O)C1CCCCCC1`, the “% Inhibition” value is -7% and the Z score was 0.78.
As to `CC(C)(C)n1ncn(Cc2ccn(C3CCCC3)n2)c1=O`, the “% Inhibition” value is reported as -3% and the Z score is 0.51.
On the same counts, the results for `O=C1CC[C@H](NC(=O)c2cccc(C(F)F)c2F)C2(CCC2)N1` are -6% and 0.92.
Regarding `COC(C)C(=O)N1CCCC(NS(=O)(=O)c2ccccc2)C1` (centres undefined), the “% Inhibition” value is recorded as -9% and the Z score is reported as 0.93.
In the case of `Cc1cn2c(CCC(=O)N3C[C@H](C)Oc4ncccc43)csc2n1`, the “% Inhibition” value is reported as -13% and the Z score is given as 1.78.
Take `CC1=C[C@@H](CNCc2cccnc2)[C@H](C(C)C)C[C@H]1Cc1nc2cccc(C)c2[nH]1`: the “% Inhibition” value stood at 8% and the Z score was -1.25.
Turning to `CC[C@H]1CN(C(=O)N2CCC(C(=O)NCCCN(C)Cc3ccccc3)CC2)c2cc(C)ccc2O1`, the “% Inhibition” value is on record as 3% and the Z score was -0.6.
For the compound `Cc1cccc(C(=O)NC[C@](C)(O)C(F)(F)F)n1`, the “% Inhibition” value was found to be 7% and the Z score is given as -1.26.
For the compound `O=C(c1cccc2[nH]c(C(F)F)nc12)N1CCN2C[C@H](O)C[C@H]2C1`, the “% Inhibition” value was -6% and the Z score was determined as 0.8.
As to `CCc1cc(C#N)ccc1NC(=O)N(C)Cc1nc(C)c[nH]1`, the “% Inhibition” value was -7% and the Z score is listed as 1.44.
For `O=C(N[C@@H](Cc1ccccc1)C(=O)OCc1cnc(-c2ccccc2)o1)c1ccccc1`, the “% Inhibition” value is given as 38% and the Z score is -1.3.
`C[C@H](NC(=O)CCC1CCN(C)CC1)c1cc(F)cc(F)c1`: the “% Inhibition” value is -7% and the Z score is 1.03.
On the same counts, the results for `O=C(Cc1cccnc1)N1CCO[C@@H](Cc2ccccc2Cl)C1` are -6% and 0.76.
Consider `Cn1c(=O)n(C)c2cc(S(=O)(=O)N3CCCC3)c(Cl)cc21`, for which the “% Inhibition” value was -12% and the Z score came out at 1.89.
Consider `Cc1cc(C)cc(NC(=O)N2CCN(c3nc4cc(Br)ccc4n4cccc34)CC2)c1`, for which the “% Inhibition” value was 1% and the Z score is -0.18.
With `CC(C)[C@@H](C(=O)NCC1(c2ccncc2)CCCC1)N1CCCS1(=O)=O`, the “% Inhibition” value is listed as -2% and the Z score came to 0.3.
`c1ccc(C[C@H]2CN(C3CC3)CCN2)cc1`: the “% Inhibition” value was -14% and the Z score is recorded as 1.64.
In the case of `Cc1cc(C(=O)NC2(C(N)=O)CCCCCC2)c2ccc(Cl)cc2n1`, the “% Inhibition” value is reported as -8% and the Z score was determined as 1.37.
On the same counts, the results for `Cc1nc(C)c(CNc2ccc(Cc3nnc4ccccn34)cc2)s1` are -7% and 0.76.
`Cc1ncnc(N2CC[C@@]3(C2)C(=O)Nc2ccccc23)c1C`: the “% Inhibition” value is reported as -14% and the Z score is recorded as 1.36.
As for `Cc1cc(=O)n(CCC(=O)O)c2nn(Cc3ccccc3)cc12`, the “% Inhibition” value is listed as -39% and the Z score is listed as 4.6.
Regarding `O=C(NCCNC(=O)C1CC=CCC1)C1CC=CCC1` (centres undefined), the “% Inhibition” value was -24% and the Z score was found to be 2.78.
Regarding `Cc1ccc(CN2C(=O)NC3(CCCCC3)C2=O)c(O[C@H]2CCOC2)c1`, the “% Inhibition” value is -9% and the Z score is reported as 0.98.

The % Inhibition is the change of the read-out against control, counted positive when it falls.

For the origin of these results see ChEMBL document CHEMBL4888484, “Replenishing the malaria drug discovery pipeline: Screening and hit evaluation of the MMV Hit Generation Library 1 (HGL1) against asexual blood stage Plasmodium falciparum ,using a nano luciferase reporter read-out” (2022).
